{"source": "PubChem BioAssay AID493208", "about": "(National Center for Advancing Translational Sciences (NCATS), 2011)", "note": "Hit rate of the full screen: of about 44,000 compounds, about 340 (0.77%) were called active. Inconclusive results (about 5%) are left out. Calls follow the shape of the dose curve; as a rule, active = well fitted inhibition curve with a large enough effect; inconclusive = small, poorly fitted or top-dose-only effect; inactive = flat fitted curve, though single readings scatter. This is one part of the list.", "data": [{"assay": "Acumen qHTS Assay for Inhibitors of the mTORC1 Signaling Pathway in MEF (Tsc2-/-, p53-/-) Cells: Sytravon; also: nearly all actives have a fitted effect of over 50% in size; also: potency is read from the fitted curve at half-maximal effect;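 as to activity change, negative = inhibition: plate controls were DMSO for no effect and rapamycin for full effect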", "details": "phospho-rpS6 immunofluorescence/PI, 24 h; series mostly up to 38.3 µM; activity change, negative = inhibition: at the top concentration", "outline": "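Compounds act on Tsc2-/-, p53-/- fibroblasts carrying an empty vector for 24 h before fixation and dual staining for phospho-S6 and DNA (propidium iodide). Values are percentages of cells above a rapamycin-defined pS6/PI threshold.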", "values": [{"compound": "COc1ccc(NC(=O)CSC2=Nc3ccccc3C3=NC(CCC(=O)NCCc4ccccc4)C(=O)N23)c(OC)c1", "note": "(stereo unspecified)", "activity change, negative = inhibition": "inactive: -1.21%"}, {"compound": "O=C(NCc1ccco1)c1ccc2c(c1)N(Cc1ccccc1F)C(=O)c1ccccc1S2=O", "note": "(stereo unspecified)", "activity change, negative = inhibition": "inactive: -7.85%"}, {"compound": "Cc1cccc(OC(=O)c2cc(-c3ccc(Cl)cc3)on2)c1C", "activity change, negative = inhibition": "inactive: -3.38%"}, {"compound": "COc1ccc(CNC(=O)c2cc(C)nc3c2c(C)nn3-c2cccc(Cl)c2C)cc1", "activity change, negative = inhibition": "inactive: 3.96%"}, {"compound": "COc1cccc(NC(=O)C(CCSC)NC(=O)C2CCC(C)CC2)c1", "note": "(stereo unspecified)", "activity change, negative = inhibition": "inactive: -19.2%"}, {"compound": "CC(C)CN(CCCNC(=O)c1cn(C)c2ccc(S(=O)(=O)N(C)C3CCCCC3)cc2c1=O)CC(C)C", "activity change, negative = inhibition": "inactive: -0.162%"}, {"compound": "COc1ccc(C)cc1NC(=O)CC(=O)Nc1ccc2nc3n(c(=O)c2c1)CCCCC3", "activity change, negative = inhibition": "inactive: -8.9%"}, {"compound": "CCOc1ccc(S(=O)(=O)N(C(=O)c2ccncc2)c2ccc3oc(C)c(C(=O)OC)c3c2)cc1", "Potency": "active: 5.21 µM"}, {"compound": "CCOc1ccc(C2=CC(c3cc(Br)ccc3F)n3ncnc3N2)cc1Cl", "note": "(stereo unspecified)", "activity change, negative = inhibition": "inactive: 0.46%"}, {"compound": "Cc1nn(CC(=O)Nc2cccc(C(F)(F)F)c2)c(=O)c2nn(-c3ccccc3)c(C)c12", "activity change, negative = inhibition": "inactive: -17.8%"}, {"compound": "CC(C)CSc1oc(-c2ccco2)nc1S(=O)(=O)c1ccc(Br)cc1", "activity change, negative = inhibition": "inactive: -20.4%"}, {"compound": "CCOc1ccc(-n2c(=O)c3c(C)c(C)sc3n(Cc3cc(=O)n4cc(Cl)ccc4n3)c2=O)cc1", "activity change, negative = inhibition": "inactive: 0.29%"}, {"compound": "CN(C(=O)CSc1nc2ccccc2n1Cc1cccc(C(F)(F)F)c1)c1ccccc1", "activity change, negative = inhibition": "inactive: 8.34%"}, {"compound": "O=C(COC(=O)c1cc(-c2ccccc2)nc2c(Cl)cccc12)c1ccc(F)cc1", "activity change, negative = inhibition": "inactive: 0.0329%"}, {"compound": "Cc1ccc(CCNC(=O)c2cc(-c3ccc(Cl)cc3)n[nH]2)cc1", "activity change, negative = inhibition": "inactive: 1.34%"}, {"compound": "Cc1ccc(Nc2cc(C(=O)NCc3cccs3)c3ccccc3n2)c(C)c1", "activity change, negative = inhibition": "inactive: 3.76%"}, {"compound": "Cc1ccc(NC(=O)Cc2coc3c(C)c(C)ccc23)cc1Cl", "activity change, negative = inhibition": "inactive: -11.8%"}, {"compound": "Cc1ccc(NC(=O)c2ccc3[nH]c(C)cc(=O)c3c2)c(C)c1", "activity change, negative = inhibition": "inactive: 1.37%"}, {"compound": "COc1ccc(Nc2ncc3c(n2)CCN(C(=O)OC(C)(C)C)C3)cc1", "activity change, negative = inhibition": "inactive: -8.42%"}, {"compound": "COc1ccccc1CN1CCN(C2CCN(C(=O)NC(C)C)CC2)C(=O)C1=O", "activity change, negative = inhibition": "inactive: 0%"}, {"compound": "COc1cc2ccccc2cc1C(=O)Nc1ccc2oc(-c3ccccc3)nc2c1", "activity change, negative = inhibition": "inactive: -10.1%"}, {"compound": "CCOc1ccccc1C(=O)N(Cc1cccs1)c1ccc(Cl)cc1", "activity change, negative = inhibition": "inactive: -7.54%"}, {"compound": "Cc1cc(O)c(-c2ccnc3cc(-c4ccccc4)nn23)cc1Cl", "activity change, negative = inhibition": "inactive: -21.8%"}, {"compound": "Cc1ccccc1CNC(=O)CCC(=O)N1CC2CCCN2c2ccccc21", "note": "(stereo unspecified)", "activity change, negative = inhibition": "inactive: 4.37%"}, {"compound": "CC1CCN(S(=O)(=O)c2ccc3c(c2)N(CC(=O)N2CCN(c4ccccc4)CC2)C(=O)CO3)CC1", "activity change, negative = inhibition": "inactive: -9.5%"}, {"compound": "COc1ccccc1C(=O)Nc1nc2nc(C)c(Cc3ccccc3)c(=O)n2[nH]1", "activity change, negative = inhibition": "inactive: -6.63%"}, {"compound": "COc1ccccc1CNc1ncnc2c1c(-c1ccccc1)cn2-c1cccc(C)c1", "activity change, negative = inhibition": "inactive: -9.62%"}, {"compound": "CC(=O)c1ccc(NC(=O)Cn2ncc3c(C)n(Cc4ccc(F)cc4)c(C)c3c2=O)cc1", "activity change, negative = inhibition": "inactive: -0.368%"}, {"compound": "COc1cccc(Cn2c(CNS(=O)(=O)c3ccc4c(c3)CCCC4)nc3cccnc32)c1", "activity change, negative = inhibition": "inactive: -9.65%"}, {"compound": "CCN(CC)C(=O)CSc1nc2ccccc2c(=O)n1Cc1ccco1", "activity change, negative = inhibition": "inactive: -2.08%"}, {"compound": "COc1ccc(Cl)cc1NC(=O)N1CC(=O)Nc2sc3c(c2C1c1ccccc1)CCCC3", "note": "(stereo unspecified)", "activity change, negative = inhibition": "inactive: -0.582%"}, {"compound": "CCCc1nccn1S(=O)(=O)c1cc(Br)ccc1OC", "activity change, negative = inhibition": "inactive: 3.02%"}, {"compound": "Cc1ccc(NC(=O)Cn2c(-c3cncs3)nc3ccccc32)cc1Br", "activity change, negative = inhibition": "inactive: -4.5%"}, {"compound": "COc1cc2c(C(=O)N(C)c3cc(Cl)ccc3OC)cn(CC(C)C)c(=O)c2cc1OC", "activity change, negative = inhibition": "inactive: 4.4%"}, {"compound": "CCN(C(=O)Cn1c(=O)n(CC2CCC(C(=O)NC)CC2)c(=O)c2sccc21)c1ccccc1", "note": "(stereo unspecified)", "activity change, negative = inhibition": "inactive: -4.95%"}, {"compound": "COc1ccc(NC(=O)CN2C(=O)CCc3cc(S(=O)(=O)N4CCOCC4)ccc32)cc1Cl", "activity change, negative = inhibition": "inactive: 0%"}, {"compound": "O=C(Nc1ccccc1)c1cn(-c2ccccc2)nc1-c1ccccc1", "activity change, negative = inhibition": "inactive: -7.38%"}, {"compound": "COc1ccccc1NC(=O)CSC1=Nc2ccccc2N=C(c2ccc(F)cc2)C1", "activity change, negative = inhibition": "inactive: 0.752%"}, {"compound": "COc1ccc(Cn2ccc3nc(C)c(C(=O)Nc4ccc(OC(F)(F)F)cc4)cc3c2=O)cc1", "activity change, negative = inhibition": "inactive: -8.57%"}, {"compound": "CCCCC(=O)OC1=C(C(=O)c2ccccc2)N(CC)S(=O)(=O)c2ccccc21", "activity change, negative = inhibition": "inactive: -11.5%"}, {"compound": "CSc1ccc(CNC(=O)c2cc3cc(S(=O)(=O)N4CCCCC4)ccc3n2C)cc1", "activity change, negative = inhibition": "inactive: -3.06%"}, {"compound": "O=C(Nc1cccc(-c2nc3ccccc3o2)c1)c1cccc(Br)c1", "activity change, negative = inhibition": "inactive: -0.541%"}, {"compound": "CCOC(=O)c1c(Nc2cc(C)cc(C)c2)nnc(-c2ccccc2)c1-c1ccccc1", "activity change, negative = inhibition": "inactive: -11.4%"}, {"compound": "COc1cccc(CNC(=O)C2CCN(S(=O)(=O)N3CCC(C)CC3)CC2)c1", "activity change, negative = inhibition": "inactive: 6.31%"}, {"compound": "COc1ccccc1CNS(=O)(=O)c1ccc(F)c(C(=O)Nc2cc(Cl)ccc2OC)c1", "activity change, negative = inhibition": "inactive: 0%"}, {"compound": "Cc1cccc(OCCSc2nc(-c3cccs3)nc3cc(=O)[nH]n23)c1", "activity change, negative = inhibition": "inactive: 0.724%"}, {"compound": "COc1ccccc1N1CCN(S(=O)(=O)c2c(C)nc3sc(C)c(C)n3c2=O)CC1", "activity change, negative = inhibition": "inactive: -2.61%"}, {"compound": "COc1cccc2c1Oc1ncccc1N(C(=O)Nc1cccc(Cl)c1)C2", "activity change, negative = inhibition": "inactive: -11.1%"}, {"compound": "CCCCC(=O)OC1=C(C(=O)c2ccccc2)N(C)S(=O)(=O)c2ccccc21", "activity change, negative = inhibition": "inactive: -17.2%"}, {"compound": "Cn1nc(-c2ccc(C(=O)Nc3cccc(C(F)(F)F)c3)cc2)c2ccccc2c1=O", "activity change, negative = inhibition": "inactive: 2.61%"}, {"compound": "O=C(Nc1ccc(F)cc1F)c1cnn(-c2ccc(F)cc2)c1-n1cccc1", "activity change, negative = inhibition": "inactive: -2.71%"}, {"compound": "CCOc1ccccc1NC(=O)CN1c2ccccc2S(=O)(=O)c2ccccc21", "activity change, negative = inhibition": "inactive: -12.1%"}, {"compound": "Cc1ccc(CNC(=O)c2cc(S(=O)(=O)N3CCCCCC3)cn2C)cc1", "activity change, negative = inhibition": "inactive: 0.382%"}, {"compound": "COc1ccc(CNS(=O)(=O)c2cnc(N)nc2)cc1", "activity change, negative = inhibition": "inactive: -1.15%"}, {"compound": "CCOc1ccc(NS(=O)(=O)c2ccc3[nH]cc(C(=O)NCc4ccccc4)c(=O)c3c2)cc1", "activity change, negative = inhibition": "inactive: 1.55%"}, {"compound": "Cc1nn(C)c(C)c1S(=O)(=O)N(CC(=O)N1CCN(c2ccccc2)CC1)c1ccc(C(C)C)cc1", "activity change, negative = inhibition": "inactive: -2.61%"}, {"compound": "CCOc1ccccc1NC(=O)C1CCN(S(=O)(=O)c2ccc3[nH]c4c(c3c2)CCCCC4)CC1", "activity change, negative = inhibition": "inactive: 5.01%"}, {"compound": "CCCCCNC(=O)c1ccc2c(c1)nc(C)n2-c1cccc(C)c1", "activity change, negative = inhibition": "inactive: -21.3%"}, {"compound": "O=C(CCn1c(=O)c2cccn2c2ccccc21)Nc1ccc(F)cc1", "activity change, negative = inhibition": "inactive: 9%"}, {"compound": "Cc1cc(C)n(-c2nnc(Nc3cc(Cl)ccc3C)c3ccccc23)n1", "activity change, negative = inhibition": "inactive: 15.6%"}, {"compound": "COc1ccccc1NC(=O)c1cc2c([nH]c1=O)CC(C)(C)CC2=O", "activity change, negative = inhibition": "inactive: 15.1%"}]}]}
